Measurements as given in the RNAGym collection of RNA variant scans (doi:10.1093/nar/gkz1192).
Read counts are not given, so values of variants with three or more changes are uncertain.

B1: CPEB3 Ribozyme (parent)
chain: UAACAGGGGGCCACAGCAGAAGCGUUCACGUCGCAGCCCCUGUCAGAUUCUGGUGAAUCUGCGAAUUCUGCUGUAUAUCUC

Variants of: B1
Assay: self-cleavage, relative activity (ratio to wild type); higher = more cleavage; in vitro, sequencing
Procedure, shortened: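 For each CPEB3 ribozyme variant, relative activity is its cleaved/total read fraction divided by the unmutated ribozyme's. Barcoded error-prone PCR libraries were transcribed by T7 RNA polymerase (5 hours, 37°C) and held in DNase I for 15 min before an EDTA stop, with cleavage occurring throughout. Template-switching reverse transcription and Illumina sequencing were used to read the RNAs. A 5-read minimum applied, and results are the mean of three batches.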

Variant	self-cleavage
UAACAGGGGGCCACGGCAGAAGCGUUCGCGCCGCAGCCCCUGUCAGAUUCUGGUGAAUCUGCGAAUUCUGCUGUAUAUCUC [A15G A28G U31C]	0.12
UAACAGGGGGCCACGGCAGAAGCGUUCGCGCCGCAGCCCCUGUCAGAUUCUGGUGAAUCUGCGAAUUCUGCUGUUUAUCCC [A15G A28G U31C A75U U80C]	0.24
UAACAGGGGGCCACGGCAGAAGCGUUCGCGUCGCAGCCCCAGUCAGAUUAUGGUGAAUCUGCGAAUUCUGCUGUUUAUCUC [A15G A28G U41A C50A A75U]	0.07
UAACAGGGGGCCACGGCAGAAGCGUUCGCGUCGCAGCCCCCGUCAGAUUCAGGUGAAUCUGCGAUUUCUGCUGUAUAUCUC [A15G A28G U41C U51A A65U]	0.16
UAACAGGGGGCCACGGCAGAAGCGUUCGCGUCGCAGCCCCCGUCAGAUUCUGGUGAAUCUGCGAAUCCUGCUGUAUAUCUC [A15G A28G U41C U67C]	0.16
UAACAGGGGGCCACGGCAGAAGCGUUCGCGUCGCAGCCCCUGUCAGAUUCAGAUGAAUCUGCGAAUUCUGCCGUAUAUCUC [A15G A28G U51A G53A U72C]	1.08
UAACAGGGGGCCACGGCAGAAGCGUUCGCGUCGCAGCCCCUGUCAGAUUCUGGUGAAUCUGCGAAUUCUGCAGUAUUUCUC [A15G A28G U72A A77U]	0.32
UAACAGGGGGCCACGGCAGAAGCGUUCGCGUCGCAGCCCCUGUCAGAUUCUGGUGAAUCUGCGAAUUCUGCCGUAUAUUUC [A15G A28G U72C C79U]	1.15
UAACAGGGGGCCACGGCAGAAGCGUUCGCGUCGCAGCCCCUGUCAGAUUCUGGUGAAUCUGCGAAUUCUGCUGUAUAUCCC [A15G A28G U80C]	0.56
UAACAGGGGGCCACGGCAGAAGCGUUCUCGUCGCUGCCCCUGUCAGAUUCUGGUGAAUCUGCGGAUUCUGCUGUAUAUCUC [A15G A28U A35U A64G]	0.13
UAACAGGGGGCCACGGCAGAAGCGUUCUCGUCGCUGCCCCUGUCAGAUCCUGGUGAAUCUGCGAAUUCUGCUGUAUAUCUC [A15G A28U A35U U49C]	0.08
UAACAGGGGGCCACGGCAGAAGCGUUCUCGUCGCAGCCCCUGUCUGAUUCUGGUGAAUCCGUGAAUUCUGCAGUAUAUCUC [A15G A28U A45U U60C C62U U72A]	0.03
UAACAGGGGGCCACGGCAGAAGCGUUCUCGUCGCAGCCCCUGUCAGUUUCUGGUGAAUCUGCGAAUUCUGCUGUGUAUCUC [A15G A28U A47U A75G]	0.15
UAACAGGGGGCCACGGCAGAAGCGUUCUCGUCGCAGCCCCUGUCAGAUUCUGGUGUAUCUGCGAAUACUGCUGCAUAUCUC [A15G A28U A56U U67A U74C]	0.16
UAACAGGGGGCCACGGCAGAAGCGUUCUCGUCGCAGCCCCUGUCAGAUUCUGGUGAAUCUGCGUAUUCUGCUGUACAUCUC [A15G A28U A64U U76C]	0.14
UAACAGGGGGCCACGGCAGAAGCGUUCUCGUUGCAGCCCCUGUCAGAUUCUGGUGAAUCUGCGAAUUCUGCUGUAUAUCUC [A15G A28U C32U]	0.3
UAACAGGGGGCCACGGCAGAAGCGUUCUCGUCGCAGCCCCUGCCAGAUUCUGGUGAAUCUGCGAAUUCAGCUGUAUAUCCC [A15G A28U U43C U69A U80C]	0.07

Variant	self-cleavage
UAACAGGGGGCCACGGCAGAAGCGUUCUCGUCGCAGCCCCUGUCAGAUACUGGUGAAUCUACGAAUUCUACUGUAUGUCUC [A15G A28U U49A G61A G70A A77G]	0.1
UAACAGGGGGCCACGGCAGAAGCGUUCUCGUCGCAGCCCCUGUCAGAUUCCGGUGAAUCUGCGAAUUCUGCUGUAUAUCUC [A15G A28U U51C]	0.41
UAACAGGGGGCCACGGCAGAAGCGUUCUCGUCGCAGCCCCUGUCAGAUUCUGGCGAAUCUGCGAAGUCUGCUGUAUAUCUC [A15G A28U U54C U66G]	0.18
UAACAGGGGGCCACGGCAGAAGCGUUCUCGUCGCAGCCCCUGUCAGAUUCUGGUGAAACUACGAAUUCUGCUGUAUGUCUC [A15G A28U U58A G61A A77G]	0.08
UAACAGGGGGCCACGGCAGAAGCGUUCUCGUCGCAGCCCCUGUCAGAUUCUGGUGAAUCUGCGAAUUCUGCUGAAUAUCUC [A15G A28U U74A]	0.45
UAACAGGGGGCCACGGCAGAAGCGUUCUCGUCGCAGCCCCUGUCAGAUUCUGGUGAAUCUGCGAAUUCUGCUGUACAUCUC [A15G A28U U76C]	0.45
UAACAGGGGGCCACGGCAGAAGCGUUCACGUCGCGGCCCCUGUCGGAUACUGGUGAAUCUGCGAAUUCUGCUGUAUAUCUC [A15G A35G A45G U49A]	0.16
UAACAGGGGGCCACGGCAGAAGCGUUCACGUCGCGGCCCCUGUCUGAUUCUGGUGAAUCUGCGAAUUCUGCUGUAUAUCAC [A15G A35G A45U U80A]	0.49
UAACAGGGGGCCACGGCAGAAGCGUUCACGUCGCGGCCCCUGUCAGAUUCUGGUGGAUCCGCGAAUUCUGCUGUAUAUCUC [A15G A35G A56G U60C]	0.47
UAACAGGGGGCCACGGCAGAAGCGUUCACGUCGCGGCCCCUGUCAGAUUCUGGUGAGUCUACGAAUUCUGCUGUAUAUCUC [A15G A35G A57G G61A]	0.36
UAACAGGGGGCCACGGCAGAAGCGUUCACGUCGCGGCCCCUGUCAGAUUCUGGUGAAUCUGCGGAUUCUGCUGUAUAUCUC [A15G A35G A64G]	0.63
UAACAGGGGGCCACGGCAGAAGCGUUCACGUCGCGGCCCCUGUCAGAUUCUGGUGAAUCUGCGAGUUCUGCUGUAUAUCUC [A15G A35G A65G]	0.3
UAACAGGGGGCCACGGCAGAAGCGUUCACGUCGCGGCCCCUGUCAGAUUCUGGUGAAUCUGCGAGCUCUGCUGUAUAUCUC [A15G A35G A65G U66C]	0.12
UAACAGGGGGCCACGGCAGAAGCGUUCACGUCGCGGCGCCUGACAGAUUCUGGUGAAUCUGCGAAUUCUGCUGUAUAUCUC [A15G A35G C38G U43A]	0.53
UAACAGGGGGCCACGGCAGAAGCGUUCACGUCGCGGCCUCUGUCAGAUUCUGGUGAAUCUGCGAAUUCCGCAGUAUAUCUC [A15G A35G C39U U69C U72A]	0.16
UAACAGGGGGCCACGGCAGAAGCGUUCACGUCGCGGCCCGCGUCAGAUUCUGGUGAAUCCGCGAAUUCUGCUGUAUAUCUC [A15G A35G C40G U41C U60C]	0.14
UAACAGGGGGCCACGGCAGAAGCGUUCACGUCGCGGCCCCUGUCAGAUUUUGGUGAAUCUGCGAAUUCUGCUGUAUAUCUC [A15G A35G C50U]	0.17
